# Results as given in the supplement of paper PMC12217912.
# Some of the results follow. The full chains were built here from the parent and the listed change. Values near 0.05 are background.
# B1: TEV protease; numbered along this chain (parent)
# chain: MGESLFKGPRDYNPISSSICHLTNESDGHTTSLYGIGFGPFIITNKHLFRRNNGTLVVQSLHGVFKVKDTTTLQQHLVDGRDMIIIRMPKDFPPFPQKLKFREPQREERICLVTTNFQTKSMSSMVSDTSCTFPSGDGIFWKHWIQTKDGQCGSPLVSTRDGFIVGIHSASNFTNTNNYFTSVPKNFMELLTNQEAQQWVSGWRLNADSVLWGGHKVFMVKPEEPFQPVKEATQL
# Variants of: B1
# Experiment: raw area under fraction-flipped curve 0-4 h after induction (AUC4h, not background-subtracted), DNA-recorder readout of cleavage of the substrate (dimensionless); higher = more cleavage of the substrate by the protease variant
# Conditions: temperature: 34 °C; time window: 0-4 h after rhamnose induction
# 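Note: Bxb1 expression induced with 0.2% (w/v) L-rhamnose at OD600 near 0.5, cultures sampled hourly, flipped fraction per protease–substrate barcode pair counted by paired-end Illumina sequencing.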
Variant,area with substrate EALYFQS,area with substrate ECLYFQS,area with substrate EDLYFQS,area with substrate EELYFQS,area with substrate EGLYFQS,area with substrate EHLYFQS,area with substrate EILYFQS,area with substrate EKLYFQS,area with substrate EMLYFQS,area with substrate EPLYFQS,area with substrate ERLYFQS,area with substrate ESLYFQS,area with substrate ETLYFQS,area with substrate EVLYFQS,area with substrate EYLYFQS,area with substrate EQLYFQS,area with substrate EFLYFQS,area with substrate ELLYFQS,area with substrate EWLYFQS
T181G,0.105,0.0973,0.111,0.0821,0.0741,0.119,0.084,0.0814,0.0989,0.0999,0.081,0.0843,0.0974,0.0762,0.0817,,,,
L205F,0.0361,0.0788,0.0778,,0.0787,0.169,,0.121,0.145,,0.0962,,,0.0883,0.0856,,,,
L205N,0.0728,0.0383,0.0813,0.0863,0.049,0.0803,0.0744,,,,,,,,,0.0769,,,
H215G,0.0721,0.0601,,0.066,0.0193,0.0703,0.0626,0.0956,0.068,,0.0665,0.0525,0.054,0.0636,0.0538,0.052,0.0738,0.0556,0.0625
N193P,0.0623,0.0699,0.0696,0.0735,0.0476,0.0676,0.0582,0.0762,,0.0637,,0.0837,,0.0544,,0.0655,,0.0554,
V183C,0.114,0.117,0.138,0.115,0.0851,0.0638,0.0583,0.124,0.127,,0.114,0.0951,0.128,0.107,,,0.116,,0.0861
V183I,0.0993,0.103,0.106,0.149,0.102,0.106,,0.147,,,0.0974,0.0923,0.127,0.0515,,,,0.0813,
W212M,0.18,0.142,0.194,0.0756,,0.162,0.109,0.128,0.118,,0.111,0.125,,0.141,0.141,0.148,,,0.129
G213Y,0.111,0.0585,0.0693,0.064,,0.0617,0.0593,0.0524,0.0556,,0.113,0.063,0.0551,,,,0.0551,0.0813,
G213K,0.0523,0.0793,0.0727,0.046,,0.0606,0.0606,0.0367,0.0588,0.0496,0.0596,0.0473,0.0738,0.0573,0.054,0.0635,0.0659,0.056,
G213S,0.0593,0.0682,,0.0914,0.0509,,,0.0799,,0.0945,0.115,0.0771,0.0703,0.0509,,0.0775,,0.0915,0.0705
G213A,0.079,0.116,0.121,0.0873,0.0556,0.0921,0.0667,0.0733,0.0733,0.0618,,0.0763,0.0884,0.0635,0.0759,0.0887,0.0551,0.0712,
